Laboratory results taken from the supplement of paper PMC4967469.
The IC50 comes from the fitted curve, where viability falls to half of the control; a fit beyond the top or the lowest dose is shown as a bound at that dose. The AUC spans the tested range (256-fold, ending at the top dose) of the same fit; the more sensitive the line, the further below 1. A top dose marked as inferred was calculated from the reported fits.

Tests used:
Assay in all cases: Viability of human cancer cell lines after 72 h of drug (GDSC screen)
Bryostatin 1 = compound: CCC/C=C/C=C/C(=O)O[C@H]1/C(=C/C(=O)OC)C[C@H]2C[C@H]([C@@H](C)O)OC(=O)C[C@H](O)C[C@@H]3C[C@H](OC(C)=O)C(C)(C)[C@](O)(C[C@@H]4C/C(=C/C(=O)OC)C[C@H](/C=C/C(C)(C)[C@]1(O)O2)O4)O3 [Bryostatin 1]; conditions: top dose 0.008 µM; top dose inferred
Method: (§1)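 Human cancer cell lines in 384-well plates, medium with 10% serum, drug for 72 h over a 256-fold dose range (nine 2-fold or five 4-fold steps up to the top dose). Adherent lines were fixed and stained with the nucleic acid dye Syto60, suspension lines read with resazurin; signal relative to control wells, capped at 0 and 100%. One two-parameter sigmoid per drug and line, fitted in a mixed model over all curves with the slope shared within a line.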

SGC0946 = compound: CC(C)N(CCCNC(=O)Nc1ccc(C(C)(C)C)cc1)C[C@H]1O[C@@H](n2cc(Br)c3c(N)ncnc32)[C@H](O)[C@@H]1O [SGC0946]; conditions: top dose 0.5 µM; top dose inferred
Method: as §1

GW-2580 = compound: COc1ccc(COc2ccc(Cc3cnc(N)nc3N)cc2OC)cc1 [GW-2580]; conditions: top dose 20 µM; top dose inferred
Method: as §1

| Cell Line | AUC (Bryostatin 1) | IC50 (Bryostatin 1) [µM] | AUC (SGC0946) | IC50 (SGC0946) [µM] | AUC (GW-2580) | IC50 (GW-2580) [µM] |
| --- | --- | --- | --- | --- | --- | --- |
| LC-2-ad (lung adenocarcinoma, adherent) | 0.98 | > 0.008 | 0.984 | > 0.5 | 0.981 | > 20 |
| SCC-15 (head and neck, adherent) | 0.977 | > 0.008 | 0.976 | > 0.5 | 0.98 | > 20 |
| NCI-H2196 (small cell lung carcinoma, adherent) | 0.986 | > 0.008 | – | – | 0.98 | > 20 |
| DEL (lymphoid neoplasm, suspension) | 0.987 | > 0.008 | 0.993 | > 0.5 | 0.994 | > 20 |
| SK-N-DZ (neuroblastoma, adherent) | 0.965 | > 0.008 | 0.987 | > 0.5 | 0.988 | > 20 |
| GCT (soft tissue, adherent) | 0.989 | > 0.008 | 0.988 | > 0.5 | 0.985 | > 20 |
| KP-4 (pancreas, adherent) | 0.98 | > 0.008 | 0.987 | > 0.5 | 0.953 | > 20 |
| HT-144 (melanoma, adherent) | 0.977 | > 0.008 | 0.98 | > 0.5 | 0.982 | > 20 |
| COLO-792 (melanoma, adherent) | 0.954 | > 0.008 | 0.987 | > 0.5 | 0.979 | > 20 |
| SW620 (large intestine, adherent) | 0.99 | > 0.008 | 0.985 | > 0.5 | 0.99 | > 20 |
| CAMA-1 (breast, adherent) | 0.975 | > 0.008 | 0.982 | > 0.5 | 0.967 | > 20 |
| SW837 (large intestine, adherent) | 0.847 | > 0.008 | 0.98 | > 0.5 | 0.949 | > 20 |
| CCRF-CEM (lymphoblastic leukaemia, suspension) | 0.967 | > 0.008 | 0.988 | > 0.5 | 0.991 | > 20 |
| MFE-319 (endometrium, adherent) | 0.982 | > 0.008 | 0.988 | > 0.5 | 0.986 | > 20 |
| COR-L32 (small cell lung carcinoma, suspension) | – | – | 0.965 | > 0.5 | – | – |
| YMB-1-E (breast, adherent) | – | – | – | – | 0.965 | > 20 |
| HCC1599 (breast, suspension) | 0.977 | > 0.008 | – | – | 0.979 | > 20 |
| HSC-3 (head and neck, adherent) | 0.989 | > 0.008 | 0.989 | > 0.5 | 0.988 | > 20 |
| OAW-28 (ovary, adherent) | 0.929 | > 0.008 | 0.98 | > 0.5 | 0.983 | > 20 |
| U031 (kidney, adherent) | 0.985 | > 0.008 | 0.964 | > 0.5 | 0.977 | > 20 |
| VM-CUB-1 (bladder, adherent) | 0.968 | > 0.008 | – | – | 0.985 | > 20 |
| GAMG (glioma, adherent) | 0.985 | > 0.008 | 0.982 | > 0.5 | 0.974 | > 20 |
| U-266 (myeloma, semi-adherent) | – | – | 0.981 | > 0.5 | – | – |
| COR-L311 (small cell lung carcinoma, suspension) | – | – | – | – | 0.974 | > 20 |
| A673 (rhabdomyosarcoma, adherent) | 0.99 | > 0.008 | 0.989 | > 0.5 | 0.97 | > 20 |
| COLO-829 (melanoma, adherent) | 0.89 | > 0.008 | 0.975 | > 0.5 | 0.979 | > 20 |
| GP5d (large intestine, adherent) | 0.989 | > 0.008 | 0.99 | > 0.5 | 0.986 | > 20 |

| Cell Line | AUC (Bryostatin 1) | IC50 (Bryostatin 1) [µM] | AUC (SGC0946) | IC50 (SGC0946) [µM] | AUC (GW-2580) | IC50 (GW-2580) [µM] |
| --- | --- | --- | --- | --- | --- | --- |
| LP-1 (myeloma, suspension) | 0.99 | > 0.008 | 0.993 | > 0.5 | 0.989 | > 20 |
| NCI-H1793 (lung adenocarcinoma, adherent) | 0.967 | > 0.008 | 0.976 | > 0.5 | 0.978 | > 20 |
| KG-1 (acute myeloid leukaemia, suspension) | 0.99 | > 0.008 | 0.985 | > 0.5 | 0.99 | > 20 |
| T-24 (bladder, adherent) | 0.967 | > 0.008 | 0.966 | > 0.5 | 0.988 | > 20 |
| HPAC (pancreas, adherent) | 0.866 | > 0.008 | – | – | 0.875 | > 20 |
| BPH-1 (prostate, adherent) | 0.797 | 0.00424 | 0.979 | > 0.5 | 0.95 | > 20 |
| SW900 (lung squamous cell carcinoma, adherent) | 0.984 | > 0.008 | 0.983 | > 0.5 | 0.977 | > 20 |
| JJN-3 (haematopoietic neoplasm, suspension) | 0.983 | > 0.008 | 0.992 | > 0.5 | 0.986 | > 20 |
| OSC-19 (head and neck, adherent) | 0.972 | > 0.008 | 0.983 | > 0.5 | 0.982 | > 20 |
| NCI-H522 (lung adenocarcinoma, adherent) | 0.913 | > 0.008 | 0.979 | > 0.5 | 0.979 | > 20 |
| Jurkat (T-cell leukaemia, suspension) | – | – | 0.992 | > 0.5 | – | – |
| LN-229 (glioma, adherent) | 0.954 | > 0.008 | 0.983 | > 0.5 | 0.988 | > 20 |
| PL18 (pancreas, adherent) | 0.987 | > 0.008 | 0.987 | > 0.5 | 0.976 | > 20 |
| NK-92MI (lymphoid neoplasm, suspension) | 0.988 | > 0.008 | – | – | – | – |
| TE-441-T (rhabdomyosarcoma, adherent) | 0.989 | > 0.008 | – | – | 0.989 | > 20 |
| SU-DHL-6 (B-cell lymphoma, suspension) | 0.995 | > 0.008 | 0.995 | > 0.5 | 0.995 | > 20 |
| SNU-1040 (large intestine, adherent) | – | – | 0.963 | > 0.5 | 0.982 | > 20 |
| MDA-MB-231 (breast, adherent) | 0.985 | > 0.008 | 0.959 | > 0.5 | 0.971 | > 20 |
| KYSE-270 (oesophagus, adherent) | 0.977 | > 0.008 | 0.99 | > 0.5 | 0.98 | > 20 |
| SU-DHL-1 (anaplastic large cell lymphoma, suspension) | 0.997 | > 0.008 | – | – | 0.997 | > 20 |
| HCT-116 (large intestine, adherent) | 0.952 | > 0.008 | – | – | 0.982 | > 20 |
| BCPAP (thyroid, adherent) | 0.958 | > 0.008 | 0.988 | > 0.5 | 0.98 | > 20 |
| NCI-H748 (small cell lung carcinoma, suspension) | 0.975 | > 0.008 | – | – | 0.915 | > 20 |
| SW1463 (large intestine, adherent) | 0.954 | > 0.008 | 0.975 | > 0.5 | 0.97 | > 20 |
| OVCAR-3 (ovary, adherent) | 0.965 | > 0.008 | 0.985 | > 0.5 | 0.977 | > 20 |
| H2818 (mesothelioma, adherent) | 0.988 | > 0.008 | 0.988 | > 0.5 | 0.988 | > 20 |
| PANC-10-05 (pancreas, adherent) | 0.945 | > 0.008 | 0.975 | > 0.5 | 0.982 | > 20 |

| Cell Line | AUC (Bryostatin 1) | IC50 (Bryostatin 1) [µM] | AUC (SGC0946) | IC50 (SGC0946) [µM] | AUC (GW-2580) | IC50 (GW-2580) [µM] |
| --- | --- | --- | --- | --- | --- | --- |
| SNU-475 (liver, adherent) | 0.991 | > 0.008 | – | – | 0.991 | > 20 |
| H2810 (mesothelioma, adherent) | – | – | 0.983 | > 0.5 | – | – |
| SNU-175 (large intestine, suspension) | – | – | – | – | 0.966 | > 20 |
| SCC-3 (B-cell lymphoma, suspension) | 0.995 | > 0.008 | – | – | 0.992 | > 20 |
| TALL-1 (T-cell lymphoblastic leukaemia, suspension) | 0.99 | > 0.008 | – | – | 0.989 | > 20 |
| SW1116 (large intestine, adherent) | – | – | 0.984 | > 0.5 | 0.98 | > 20 |
| Caov-3 (ovary, adherent) | 0.991 | > 0.008 | – | – | 0.989 | > 20 |
| SU-DHL-10 (B-cell lymphoma, suspension) | – | – | 0.993 | > 0.5 | 0.998 | > 20 |
| SKM-1 (haematopoietic neoplasm, suspension) | – | – | 0.974 | > 0.5 | – | – |
| NCI-H929 (myeloma, suspension) | – | – | 0.985 | > 0.5 | – | – |
| KARPAS-1106P (B-cell lymphoma, suspension) | – | – | 0.993 | > 0.5 | – | – |
| KMS-11 (myeloma, suspension) | – | – | 0.979 | > 0.5 | 0.975 | > 20 |
| NCI-H2171 (small cell lung carcinoma, suspension) | 0.99 | > 0.008 | – | – | 0.991 | > 20 |
| CAL-148 (breast, suspension) | 0.99 | > 0.008 | – | – | 0.99 | > 20 |
| KYSE-140 (oesophagus, adherent) | 0.982 | > 0.008 | – | – | 0.984 | > 20 |
| COR-L303 (small cell lung carcinoma, suspension) | – | – | – | – | 0.971 | > 20 |
| KASUMI-1 (acute myeloid leukaemia, suspension) | – | – | 0.963 | > 0.5 | 0.947 | > 20 |
| Hs940-T (melanoma, adherent) | – | – | 0.981 | > 0.5 | 0.98 | > 20 |
| K-562 (chronic myeloid leukaemia, suspension) | 0.987 | > 0.008 | – | – | – | – |
| JEKO-1 (B-cell lymphoma, suspension) | – | – | 0.985 | > 0.5 | – | – |
| NCI-H2066 (small cell lung carcinoma, adherent) | – | – | 0.948 | > 0.5 | – | – |
| CHP-134 (neuroblastoma, suspension) | – | – | – | – | 0.976 | > 20 |
| UACC-812 (breast, adherent) | 0.983 | > 0.008 | – | – | 0.988 | > 20 |
| NCI-H2228 (lung adenocarcinoma, adherent) | 0.977 | > 0.008 | – | – | 0.976 | > 20 |
| BICR31 (head and neck, adherent) | 0.968 | > 0.008 | – | – | 0.985 | > 20 |
| IM-95 (stomach, adherent) | 0.982 | > 0.008 | – | – | 0.976 | > 20 |
